Assay results reported in the supplement of paper PMC3334620.
Over roughly 33,000 sequences, “E-score (-0.5 to 0.5)” has its median near -0.036; the highest 2% begin near 0.37. Some of the results follow.

What follows are sequences tested against T1, Yer064c (UniProt P40041) (assay: PBM E-score (8-mer binding enrichment) (E-score (-0.5 to 0.5)); higher = stronger / more preferred TF binding; most listed sequences are background and not binding sites). Conditions: protein concentration: 200 nM; construct: GST-full length.
T1 sequence: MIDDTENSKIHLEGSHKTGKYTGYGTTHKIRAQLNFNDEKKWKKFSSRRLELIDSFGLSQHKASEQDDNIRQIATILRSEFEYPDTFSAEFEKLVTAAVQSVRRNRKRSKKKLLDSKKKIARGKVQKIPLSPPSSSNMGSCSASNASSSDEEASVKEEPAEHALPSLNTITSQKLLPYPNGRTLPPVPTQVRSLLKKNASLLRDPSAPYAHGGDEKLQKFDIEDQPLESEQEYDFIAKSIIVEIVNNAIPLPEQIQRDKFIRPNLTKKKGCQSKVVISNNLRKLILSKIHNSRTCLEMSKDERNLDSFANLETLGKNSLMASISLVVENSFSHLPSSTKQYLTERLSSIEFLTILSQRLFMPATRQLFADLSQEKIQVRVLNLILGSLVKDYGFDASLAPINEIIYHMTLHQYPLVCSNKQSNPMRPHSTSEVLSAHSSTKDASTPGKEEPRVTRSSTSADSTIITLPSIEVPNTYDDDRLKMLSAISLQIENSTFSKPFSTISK
Procedure, shortened: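 Full-length yeast transcription factors or their DNA-binding domains, GST-tagged and expressed with PURExpress, were applied at about 100-200 nM to universal all-10-mer Agilent arrays. These arrays had been made double-stranded by primer extension on fresh or once-stripped slides. Detection used fluorescent anti-GST, normalisation used masliner, and E-scores for ungapped eight-base words pooled with reverse complements came from the Universal PBM Analysis Suite.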

Q: How did the “PBM E-score” value turn out when ATGGACGA was run?
A: 0.0625

Q: GCTCTAGA was tested. Which “PBM E-score” value did it give?
A: 0.0383

Q: Which “PBM E-score” value does the source give for GTGGCGTA here?
A: -0.154

Q: How did the “PBM E-score” value turn out when TCGACCAA was run?
A: -0.188

Q: Which “PBM E-score” value does the source give for TATTCCAA here?
A: -0.0766

Q: With CTGTTACC as the sequence, how does the “PBM E-score” value read?
A: -0.197

Q: Which “PBM E-score” value does the source give for GCGTAGAC here?
A: -0.0194

Q: For ATGTTGTG, which “PBM E-score” value is on record?
A: 0.106

Q: How did the “PBM E-score” value turn out when ACCGGCGC was run?
A: 0.0536

Q: Which “PBM E-score” value does the source give for ACCGCCAA here?
A: 0.107

Q: How did the “PBM E-score” value turn out when CATTCTTA was run?
A: 0.0443

Q: AGGAACTG was tested. Which “PBM E-score” value did it give?
A: -0.137

Q: With ACTTCGAC as the sequence, how does the “PBM E-score” value read?
A: 0.209

Q: How did the “PBM E-score” value turn out when CGCCAAAA was run?
A: -0.204

Q: CTCTGATC was tested. Which “PBM E-score” value did it give?
A: 0.0053

Q: For ATCCAAGA, which “PBM E-score” value is on record?
A: -0.0668

Q: Which “PBM E-score” value does the source give for CATGCTGG here?
A: 0.00618

Q: ACTCCGCG was tested. Which “PBM E-score” value did it give?
A: 0.203

Q: How did the “PBM E-score” value turn out when GTGGAATA was run?
A: 0.187

Q: With ACGACAGA as the sequence, how does the “PBM E-score” value read?
A: -0.17

Q: With GACGAGCA as the sequence, how does the “PBM E-score” value read?
A: 0.0725

Q: Which “PBM E-score” value does the source give for TGAGATAA here?
A: -0.0838

Q: With CCTTCGGA as the sequence, how does the “PBM E-score” value read?
A: 0.017

Q: With CGCTCAGA as the sequence, how does the “PBM E-score” value read?
A: -0.0231

Q: AACTGCCA was tested. Which “PBM E-score” value did it give?
A: 0.0158

Q: How did the “PBM E-score” value turn out when AGCGCATA was run?
A: -0.141

Q: For CTTAGGTC, which “PBM E-score” value is on record?
A: 0.0461

Q: For AGCATACG, which “PBM E-score” value is on record?
A: -0.221

Q: With ATCCCACG as the sequence, how does the “PBM E-score” value read?
A: 0.07

Q: For CCTATAGC, which “PBM E-score” value is on record?
A: -0.178

Q: ACGTCATA was tested. Which “PBM E-score” value did it give?
A: 0.104

Q: How did the “PBM E-score” value turn out when GCCAGATA was run?
A: -0.0789

Q: How did the “PBM E-score” value turn out when CTAATATC was run?
A: 0.0994

Q: How did the “PBM E-score” value turn out when CCGTCAGC was run?
A: -0.272

Q: For ACCATCAA, which “PBM E-score” value is on record?
A: 0.0631

Q: Which “PBM E-score” value does the source give for CTCACTAA here?
A: 0.234

Q: GCACAGTA was tested. Which “PBM E-score” value did it give?
A: -0.0488

Q: CGACTTTC was tested. Which “PBM E-score” value did it give?
A: 0.172

Q: How did the “PBM E-score” value turn out when CATGGGAC was run?
A: -0.145

Q: How did the “PBM E-score” value turn out when AACGGTCA was run?
A: -0.126

Q: Which “PBM E-score” value does the source give for GCAGGGCC here?
A: -0.282

Q: Which “PBM E-score” value does the source give for GGACGGAC here?
A: -0.104

Q: GATGGCAA was tested. Which “PBM E-score” value did it give?
A: -0.164

Q: For AGTCCTTG, which “PBM E-score” value is on record?
A: 0.331

Q: Which “PBM E-score” value does the source give for AGTGCCCA here?
A: -0.189

Q: With CGCCGCTA as the sequence, how does the “PBM E-score” value read?
A: -0.281

Q: Which “PBM E-score” value does the source give for TAAAGCTA here?
A: 0.0682

Q: For GCAAGAAA, which “PBM E-score” value is on record?
A: -0.161

Q: Which “PBM E-score” value does the source give for ATCGTATC here?
A: -0.0124

Q: How did the “PBM E-score” value turn out when CGCAAGAA was run?
A: -0.147

Q: With CCGAGACG as the sequence, how does the “PBM E-score” value read?
A: -0.108

Q: Which “PBM E-score” value does the source give for AACTGCCG here?
A: -0.143

Q: For AATACCGG, which “PBM E-score” value is on record?
A: -0.229

Q: For ATCGTCAG, which “PBM E-score” value is on record?
A: 0.0383

Q: ATCACTGA was tested. Which “PBM E-score” value did it give?
A: 0.22

Q: For CTACTGCA, which “PBM E-score” value is on record?
A: -0.0611

Q: For CGCCTGTC, which “PBM E-score” value is on record?
A: -0.224

Q: With CAGTCAGG as the sequence, how does the “PBM E-score” value read?
A: 0.333

Q: How did the “PBM E-score” value turn out when GAAATATA was run?
A: 0.0173

Q: With CAAGAGAG as the sequence, how does the “PBM E-score” value read?
A: -0.00176

Q: Which “PBM E-score” value does the source give for AAGGCGTC here?
A: -0.181

Q: How did the “PBM E-score” value turn out when TAGATACA was run?
A: -0.055

Q: With ACCATGCC as the sequence, how does the “PBM E-score” value read?
A: 0.0483

Q: Which “PBM E-score” value does the source give for GTCGAGGA here?
A: -0.037

Q: With AACCACAG as the sequence, how does the “PBM E-score” value read?
A: 0.0649

Q: CAGGCCGG was tested. Which “PBM E-score” value did it give?
A: -0.193

Q: Which “PBM E-score” value does the source give for GCCGTACC here?
A: -0.313

Q: With ACGAAATA as the sequence, how does the “PBM E-score” value read?
A: -0.00015

Q: For CAGTCCGA, which “PBM E-score” value is on record?
A: 0.204

Q: Which “PBM E-score” value does the source give for CCTGCCCA here?
A: -0.428

Q: Which “PBM E-score” value does the source give for CCGTGGAG here?
A: -0.0436

Q: Which “PBM E-score” value does the source give for CATGCGAA here?
A: -0.0131

Q: With CTGTAAAG as the sequence, how does the “PBM E-score” value read?
A: -0.0482

Q: How did the “PBM E-score” value turn out when CCCTCATC was run?
A: -0.22

Q: With CCTCGCAG as the sequence, how does the “PBM E-score” value read?
A: -0.0313

Q: With ACGCCAAT as the sequence, how does the “PBM E-score” value read?
A: -0.149

Q: For ATTGTGAG, which “PBM E-score” value is on record?
A: 0.2

Q: With AATAGACG as the sequence, how does the “PBM E-score” value read?
A: -0.219

Q: With AAGCCCTC as the sequence, how does the “PBM E-score” value read?
A: -0.262

Q: Which “PBM E-score” value does the source give for CCGCGGGC here?
A: -0.0616

Q: Which “PBM E-score” value does the source give for CTAAATGA here?
A: 0.151

Q: TCATAAAA was tested. Which “PBM E-score” value did it give?
A: 0.325

Q: ATCAAGCC was tested. Which “PBM E-score” value did it give?
A: 0.172

Q: How did the “PBM E-score” value turn out when AAAGTGGT was run?
A: -0.00593

Q: With ACACATAC as the sequence, how does the “PBM E-score” value read?
A: 0.0851

Q: For GCTCTTCC, which “PBM E-score” value is on record?
A: -0.163

Q: For AAACCGAC, which “PBM E-score” value is on record?
A: -0.031

Q: Which “PBM E-score” value does the source give for CAAAACGG here?
A: -0.0529

Q: With ATCTCTGA as the sequence, how does the “PBM E-score” value read?
A: 0.0942

Q: How did the “PBM E-score” value turn out when CCTAACCG was run?
A: -0.105

Q: CGTGCCGC was tested. Which “PBM E-score” value did it give?
A: -0.172

Q: Which “PBM E-score” value does the source give for ACACTGAG here?
A: 0.066

Q: How did the “PBM E-score” value turn out when ATTCATCG was run?
A: 0.205

Q: ACTTGAAG was tested. Which “PBM E-score” value did it give?
A: 0.148
